Laboratory results taken from the RNAGym collection of RNA variant scans (doi:10.1073/pnas.2313332121).
Variants at the background level are over-represented here.

B1: TPR 5TU (parent)
chain: GGAUCUUCUCGAUCUAACAAAAAAGACAAAUCUGCCACAAAGCUUGAGAGCAUCUUCGGAUGCAGAGGCGGCAGCCUUCGGUGGCGCGAUAGCGCCAACGUUCUCAACUAUGACACGCAAAACGCGUGCUCCGUUGAAUGGAGUUUAUCAUG

Variants of: B1
Assay: polymerase ribozyme fitness, log enrichment relative to wild type (log ratio); higher = more active; in vitro selection for triplet polymerase activity
In short: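 Mutant libraries of each subunit of a heterodimeric triplet polymerase ribozyme were built by PCR and transcribed. Each library went through one round of in vitro selection in triplicate: annealing with biotinylated primer, partner subunit and triplets, frozen incubation at −7 °C, gel excision of extended constructs, streptavidin-bead capture and RT-PCR. Input and output libraries were Illumina-sequenced; only genotypes with ≥10 input reads and ≥1 read per output were kept. Fitness is log2(genotype enrichment/wild-type enrichment), using inverse-variance-weighted replicate averages.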

Question: Which “polymerase ribozyme fitness (log ratio)” value does the source give for G84A C99U G100U U144A here?
Answer: -4.12

Question: With G88C U148G as the variant, how does the “polymerase ribozyme fitness (log ratio)” value read?
Answer: ≤ -4.2

Question: Which “polymerase ribozyme fitness (log ratio)” value does the source give for G84A C123U here?
Answer: -0.156

Question: For C85G G126A U146A, which “polymerase ribozyme fitness (log ratio)” value is on record?
Answer: -1.79

Question: Which “polymerase ribozyme fitness (log ratio)” value does the source give for C87A U90G U134G here?
Answer: ≤ -4.2

Question: With C85A U135G A137U as the variant, how does the “polymerase ribozyme fitness (log ratio)” value read?
Answer: ≤ -4.2

Question: For C87U C114G, which “polymerase ribozyme fitness (log ratio)” value is on record?
Answer: -2.79

Question: With A91C C125A U135C as the variant, how does the “polymerase ribozyme fitness (log ratio)” value read?
Answer: ≤ -4.2

Question: For C85G G140C, which “polymerase ribozyme fitness (log ratio)” value is on record?
Answer: ≤ -4.2

Question: Which “polymerase ribozyme fitness (log ratio)” value does the source give for G84C U148C here?
Answer: ≤ -4.2

Question: Which “polymerase ribozyme fitness (log ratio)” value does the source give for G86A C118U G141C here?
Answer: -1.77

Question: Which “polymerase ribozyme fitness (log ratio)” value does the source give for G86A A150C here?
Answer: ≤ -4.2

Question: With C87U A97U as the variant, how does the “polymerase ribozyme fitness (log ratio)” value read?
Answer: -2.25

Question: With G88A G136A as the variant, how does the “polymerase ribozyme fitness (log ratio)” value read?
Answer: -3.83

Question: For G86A A107U, which “polymerase ribozyme fitness (log ratio)” value is on record?
Answer: -3.39

Question: Which “polymerase ribozyme fitness (log ratio)” value does the source give for C87A G128U here?
Answer: ≤ -4.2

Question: With C87U A120U U135A C149U U151A as the variant, how does the “polymerase ribozyme fitness (log ratio)” value read?
Answer: ≤ -4.2

Question: Which “polymerase ribozyme fitness (log ratio)” value does the source give for C87U C116A here?
Answer: 1.21

Question: Which “polymerase ribozyme fitness (log ratio)” value does the source give for C87A C149A here?
Answer: ≤ -4.2

Question: For C87A C93U C95U G100A C116U A121G C129A U130G, which “polymerase ribozyme fitness (log ratio)” value is on record?
Answer: ≤ -4.2

Question: Which “polymerase ribozyme fitness (log ratio)” value does the source give for G84A G136A U148C here?
Answer: -1.66

Question: For U90A G92A C103G G117U A138G, which “polymerase ribozyme fitness (log ratio)” value is on record?
Answer: ≤ -4.2

Question: For C85U A98G U111G, which “polymerase ribozyme fitness (log ratio)” value is on record?
Answer: ≤ -4.2

Question: Which “polymerase ribozyme fitness (log ratio)” value does the source give for C87U G88U A119U here?
Answer: ≤ -4.2

Question: Which “polymerase ribozyme fitness (log ratio)” value does the source give for G88C G126U U144C here?
Answer: ≤ -4.2

Question: For C87G G143U, which “polymerase ribozyme fitness (log ratio)” value is on record?
Answer: ≤ -4.2

Question: With G92U A110U U146G as the variant, how does the “polymerase ribozyme fitness (log ratio)” value read?
Answer: ≤ -4.2

Question: Which “polymerase ribozyme fitness (log ratio)” value does the source give for C85G C93U C131A U148C here?
Answer: ≤ -4.2

Question: For A89C C93A C99U, which “polymerase ribozyme fitness (log ratio)” value is on record?
Answer: ≤ -4.2

Question: For G86C A98U A142U U148A, which “polymerase ribozyme fitness (log ratio)” value is on record?
Answer: ≤ -4.2

Question: With C87G A113C U146G as the variant, how does the “polymerase ribozyme fitness (log ratio)” value read?
Answer: ≤ -4.2

Question: For G86U U151A, which “polymerase ribozyme fitness (log ratio)” value is on record?
Answer: ≤ -4.2

Question: Which “polymerase ribozyme fitness (log ratio)” value does the source give for G84U A138U here?
Answer: ≤ -4.2

Question: With A89U C95G A122G as the variant, how does the “polymerase ribozyme fitness (log ratio)” value read?
Answer: -1.39

Question: With C87G A98U U144G as the variant, how does the “polymerase ribozyme fitness (log ratio)” value read?
Answer: ≤ -4.2

Question: Which “polymerase ribozyme fitness (log ratio)” value does the source give for U90C C99G U101G C118A here?
Answer: ≤ -4.2

Question: With G86A A91U G94C U111C as the variant, how does the “polymerase ribozyme fitness (log ratio)” value read?
Answer: ≤ -4.2

Question: For C87A A150C, which “polymerase ribozyme fitness (log ratio)” value is on record?
Answer: ≤ -4.2

Question: Which “polymerase ribozyme fitness (log ratio)” value does the source give for G88A A120U C125G G126A G136U A142C here?
Answer: ≤ -4.2

Question: Which “polymerase ribozyme fitness (log ratio)” value does the source give for C87A U139C G152U here?
Answer: ≤ -4.2

Question: For A91G G112C, which “polymerase ribozyme fitness (log ratio)” value is on record?
Answer: -3.76

Question: For A89C C125A, which “polymerase ribozyme fitness (log ratio)” value is on record?
Answer: -1.13

Question: Which “polymerase ribozyme fitness (log ratio)” value does the source give for A89G U101C C118G A121U A137C U148C here?
Answer: ≤ -4.2

Question: Which “polymerase ribozyme fitness (log ratio)” value does the source give for C85U C132U here?
Answer: -0.776

Question: With G88U U111G C123U as the variant, how does the “polymerase ribozyme fitness (log ratio)” value read?
Answer: ≤ -4.2

Question: For G88A A91G A119G, which “polymerase ribozyme fitness (log ratio)” value is on record?
Answer: ≤ -4.2

Question: With C87G C116A as the variant, how does the “polymerase ribozyme fitness (log ratio)” value read?
Answer: ≤ -4.2

Question: For C87G G92C G126A, which “polymerase ribozyme fitness (log ratio)” value is on record?
Answer: 0.48

Question: With C87U C95U U111G G117U U130A as the variant, how does the “polymerase ribozyme fitness (log ratio)” value read?
Answer: ≤ -4.2

Question: For G84A C85U G143A, which “polymerase ribozyme fitness (log ratio)” value is on record?
Answer: -1.63

Question: For C87A C93A C95G A121U U127G G140A, which “polymerase ribozyme fitness (log ratio)” value is on record?
Answer: ≤ -4.2

Question: For C85A C95U G140A, which “polymerase ribozyme fitness (log ratio)” value is on record?
Answer: ≤ -4.2

Question: Which “polymerase ribozyme fitness (log ratio)” value does the source give for A91U G141A here?
Answer: -4.05

Question: With C87U C132G as the variant, how does the “polymerase ribozyme fitness (log ratio)” value read?
Answer: -3.72

Question: With C87A C103U A106U C116G G124C U127G as the variant, how does the “polymerase ribozyme fitness (log ratio)” value read?
Answer: ≤ -4.2

Question: For C85G C125A U130C, which “polymerase ribozyme fitness (log ratio)” value is on record?
Answer: -1.52

Question: With A91G A138C G140A as the variant, how does the “polymerase ribozyme fitness (log ratio)” value read?
Answer: ≤ -4.2

Question: With A89G C105A A106G C132U A142U as the variant, how does the “polymerase ribozyme fitness (log ratio)” value read?
Answer: ≤ -4.2

Question: For G88A G140A, which “polymerase ribozyme fitness (log ratio)” value is on record?
Answer: ≤ -4.2

Question: Which “polymerase ribozyme fitness (log ratio)” value does the source give for G88A G140U here?
Answer: ≤ -4.2

Question: Which “polymerase ribozyme fitness (log ratio)” value does the source give for G84A G133C G143U here?
Answer: -3.92

Question: With C85U C87U A107U as the variant, how does the “polymerase ribozyme fitness (log ratio)” value read?
Answer: ≤ -4.2

Question: Which “polymerase ribozyme fitness (log ratio)” value does the source give for G84U G92C U127C A142C here?
Answer: ≤ -4.2

Question: For G88A C95A, which “polymerase ribozyme fitness (log ratio)” value is on record?
Answer: ≤ -4.2

Question: Which “polymerase ribozyme fitness (log ratio)” value does the source give for G88A C95G here?
Answer: ≤ -4.2

Question: For A91U A110U, which “polymerase ribozyme fitness (log ratio)” value is on record?
Answer: ≤ -4.2

Question: Which “polymerase ribozyme fitness (log ratio)” value does the source give for G84U G86A C93U C123U here?
Answer: -1.15

Question: With G86U C108U as the variant, how does the “polymerase ribozyme fitness (log ratio)” value read?
Answer: -4.14

Question: Which “polymerase ribozyme fitness (log ratio)” value does the source give for A91C G152U here?
Answer: ≤ -4.2

Question: Which “polymerase ribozyme fitness (log ratio)” value does the source give for C85U A97C C99G U104C A138G here?
Answer: ≤ -4.2

Question: Which “polymerase ribozyme fitness (log ratio)” value does the source give for G84U G94C U101G here?
Answer: ≤ -4.2

Question: With C85U A115U as the variant, how does the “polymerase ribozyme fitness (log ratio)” value read?
Answer: -2.38

Question: For A89G C93A U102A A121U C131G G143A, which “polymerase ribozyme fitness (log ratio)” value is on record?
Answer: ≤ -4.2

Question: Which “polymerase ribozyme fitness (log ratio)” value does the source give for A89G A97G C103A U127C U139G here?
Answer: ≤ -4.2

Question: With C85G G141A C149G as the variant, how does the “polymerase ribozyme fitness (log ratio)” value read?
Answer: ≤ -4.2

Question: For G92A C125G G141U A147U, which “polymerase ribozyme fitness (log ratio)” value is on record?
Answer: ≤ -4.2

Question: With C85G G94U C118G as the variant, how does the “polymerase ribozyme fitness (log ratio)” value read?
Answer: -0.928

Question: With C87A G117A G133A as the variant, how does the “polymerase ribozyme fitness (log ratio)” value read?
Answer: ≤ -4.2

Question: With C87U C118G as the variant, how does the “polymerase ribozyme fitness (log ratio)” value read?
Answer: -1.33

Question: For A89U A91U, which “polymerase ribozyme fitness (log ratio)” value is on record?
Answer: ≤ -4.2

Question: Which “polymerase ribozyme fitness (log ratio)” value does the source give for A91U A120G here?
Answer: ≤ -4.2

Question: With C85U U146A as the variant, how does the “polymerase ribozyme fitness (log ratio)” value read?
Answer: -0.167

Question: For C85U U146G, which “polymerase ribozyme fitness (log ratio)” value is on record?
Answer: -0.713

Question: Which “polymerase ribozyme fitness (log ratio)” value does the source give for A91U A98U G117U A137C C149G here?
Answer: ≤ -4.2
